The supplement of paper PMC7125110
± gives the standard error. Variants at the background level are over-represented here.

B1: glmS ribozyme (parent)
chain: AUAAAAGCGCCAGAACUACAGAAAUGUAGUUGACGAGGAGGAGGUUUAUCGAAUUUUCGGCGGAUGCCUCCAAA

What was measured:
Conditions in all cases: with glucosamine-6-phosphate
[1] = variants of: B1; assay: self-cleavage kobs at 40 uM GlcN6P; higher = faster cleavage; RNA array
Procedure, shortened: (§1)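 Ribozyme variants carrying barcodes were transcribed in situ on sequenced MiSeq chips by E. coli RNA polymerase and tracked at 37 °C with a hybridised Cy3 probe. They were exposed to 40 μM to 10 mM glucosamine-6-phosphate in HEPES/KCl/Mg(OAc)2 buffer. kobs came from exponential decay fits of normalised per-tile medians, and kcat and KM from weighted Michaelis–Menten fits.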

[2] = variants of: B1; assay: self-cleavage kobs at 640 uM GlcN6P; higher = faster cleavage; RNA array
Procedure, shortened: as §1

[3] = variants of: B1; assay: self-cleavage kobs at 160 uM GlcN6P; higher = faster cleavage; RNA array
Procedure, shortened: as §1

[4] = variants of: B1; assay: self-cleavage kobs at 2500 uM GlcN6P; higher = faster cleavage; RNA array
Procedure, shortened: as §1

[5] = variants of: B1; assay: self-cleavage kobs at 10000 uM GlcN6P; higher = faster cleavage; RNA array
Procedure, shortened: as §1

Variant	self-cleavage kobs at 40 uM GlcN6P [1]	self-cleavage kobs at 640 uM GlcN6P [2]	self-cleavage kobs at 160 uM GlcN6P [3]	self-cleavage kobs at 2500 uM GlcN6P [4]	self-cleavage kobs at 10000 uM GlcN6P [5]
A33C G38C G44C G60C G62C	< 1e-05 s⁻¹	–	–	–	–
G32C C61U	< 1e-05 s⁻¹	< 1e-05 s⁻¹	< 1e-05 s⁻¹	< 1e-05 s⁻¹	< 1e-05 s⁻¹
G32U G44U U45A	< 1e-05 s⁻¹	–	–	–	–
A33C C50U	< 1e-05 s⁻¹	< 1e-05 s⁻¹	–	< 1e-05 s⁻¹	< 1e-05 s⁻¹
G32U A33C U45G	< 1e-05 s⁻¹	–	–	< 1e-05 s⁻¹	–
U31G A36U A52C G63C	< 1e-05 s⁻¹	–	–	–	–
A33U G60U	< 1e-05 s⁻¹	< 1e-05 s⁻¹	< 1e-05 s⁻¹	–	< 1e-05 s⁻¹
U31G A48C	< 1e-05 s⁻¹	–	–	–	–
A33U U57C G60C	< 1e-05 s⁻¹	–	–	–	–
G32U C34U U55A	< 1e-05 s⁻¹	–	–	–	–
U31A G43C	< 1e-05 s⁻¹	< 1e-05 s⁻¹	< 1e-05 s⁻¹	< 1e-05 s⁻¹	< 1e-05 s⁻¹
U31A G63C	< 1e-05 s⁻¹	–	< 1e-05 s⁻¹	< 1e-05 s⁻¹	–
G32A G43U C67U	< 1e-05 s⁻¹	–	–	–	–
G32U G38A G44A U65A	< 1e-05 s⁻¹	–	–	–	–
G32A A48U A52G	< 1e-05 s⁻¹	–	–	–	–
G32A G41C C50U	< 1e-05 s⁻¹	–	–	< 1e-05 s⁻¹	–
A33U U45C	< 1e-05 s⁻¹	< 1e-05 s⁻¹	< 1e-05 s⁻¹	< 1e-05 s⁻¹	–
G32A A64C C70U	< 1e-05 s⁻¹	–	–	–	–
U31G G44U C61U	< 1e-05 s⁻¹	–	–	–	< 1e-05 s⁻¹
G32U C34U A42C	< 1e-05 s⁻¹	–	–	< 1e-05 s⁻¹	–
A33G A53G	< 1e-05 s⁻¹	–	< 1e-05 s⁻¹	–	–
U31G G59U	< 1e-05 s⁻¹	–	< 1e-05 s⁻¹	–	–
G32A U57C	< 1e-05 s⁻¹	–	–	5.22e-05 ± 1.9e-05 s⁻¹	–
A33U G38U G40U	< 1e-05 s⁻¹	–	–	–	–
G32A A48C U57G C67U	< 1e-05 s⁻¹	–	–	–	–
G32C A36U A42G	< 1e-05 s⁻¹	–	–	–	–
U31C C34G G37A A42U U47A A52U	< 1e-05 s⁻¹	–	–	–	–
A33C U55C	< 1e-05 s⁻¹	< 1e-05 s⁻¹	< 1e-05 s⁻¹	–	–

Variant	self-cleavage kobs at 40 uM GlcN6P [1]	self-cleavage kobs at 640 uM GlcN6P [2]	self-cleavage kobs at 160 uM GlcN6P [3]	self-cleavage kobs at 2500 uM GlcN6P [4]	self-cleavage kobs at 10000 uM GlcN6P [5]
G32C G40C G43C A64C	< 1e-05 s⁻¹	–	–	–	–
U31A A39C	5.43e-05 ± 7.8e-06 s⁻¹	0.000525 ± 4.9e-05 s⁻¹	0.000105 ± 1.4e-05 s⁻¹	0.000973 ± 0.00011 s⁻¹	0.00166 ± 0.0003 s⁻¹
A33C A48U C58G	< 1e-05 s⁻¹	< 1e-05 s⁻¹	–	–	< 1e-05 s⁻¹
G32C G44C U55C C68A C70U	< 1e-05 s⁻¹	–	–	–	–
U31A G37C U69G	< 1e-05 s⁻¹	–	–	–	–
U31A G38A	< 1e-05 s⁻¹	–	< 1e-05 s⁻¹	–	< 1e-05 s⁻¹
G32U G38C U65C C70G	< 1e-05 s⁻¹	–	–	–	< 1e-05 s⁻¹
A33U G59C	< 1e-05 s⁻¹	< 1e-05 s⁻¹	–	–	–
A33U G59U	< 1e-05 s⁻¹	< 1e-05 s⁻¹	–	< 1e-05 s⁻¹	–
C34A A39G A48U C68A	< 1e-05 s⁻¹	–	< 1e-05 s⁻¹	< 1e-05 s⁻¹	< 1e-05 s⁻¹
U31A U56G	0.000249 ± 5.8e-05 s⁻¹	0.00335 ± 0.00098 s⁻¹	0.000532 ± 0.00021 s⁻¹	0.00579 ± 0.0015 s⁻¹	0.0132 ± 0.0039 s⁻¹
U31A U56A	0.000218 ± 3.2e-05 s⁻¹	0.00221 ± 0.00061 s⁻¹	–	0.00123 ± 0.0005 s⁻¹	0.00967 ± 0.0011 s⁻¹
G32U A39G U57G G62A G66U C67U C70G C71U	< 1e-05 s⁻¹	–	–	–	< 1e-05 s⁻¹
A33G G35A	< 1e-05 s⁻¹	< 1e-05 s⁻¹	< 1e-05 s⁻¹	–	–
A33U A42U U46A	< 1e-05 s⁻¹	–	–	–	–
A33G A48U	< 1e-05 s⁻¹	< 1e-05 s⁻¹	–	< 1e-05 s⁻¹	< 1e-05 s⁻¹
A33U A48G A53U U57C	< 1e-05 s⁻¹	–	–	–	< 1e-05 s⁻¹
A33G G37A G51U A53U A64G	< 1e-05 s⁻¹	–	–	–	< 1e-05 s⁻¹
A33U G40A	< 1e-05 s⁻¹	–	–	–	–
U31C A39C A53U G63U	< 1e-05 s⁻¹	–	–	–	–
U31G G35C	< 1e-05 s⁻¹	< 1e-05 s⁻¹	< 1e-05 s⁻¹	< 1e-05 s⁻¹	–
A33G U57C	< 1e-05 s⁻¹	< 1e-05 s⁻¹	–	–	< 1e-05 s⁻¹
G32A G37A C71A	< 1e-05 s⁻¹	–	–	–	–
A33G G37A U55A	< 1e-05 s⁻¹	–	–	–	–
A33C G35C C68U	< 1e-05 s⁻¹	–	–	–	–
C34A A42C	< 1e-05 s⁻¹	< 1e-05 s⁻¹	< 1e-05 s⁻¹	< 1e-05 s⁻¹	< 1e-05 s⁻¹
U31C	0.000168 ± 2.9e-06 s⁻¹	0.00208 ± 7.4e-05 s⁻¹	0.000489 ± 1.7e-05 s⁻¹	0.00415 ± 0.00014 s⁻¹	0.00805 ± 0.00018 s⁻¹
